In PubChem BioAssay AID588591 (National Center for Advancing Translational Sciences (NCATS), 2011):
Hit rate of the full screen: of about 390,000 compounds, about 4,700 (1.2%) were called active. The shares of active, inactive and inconclusive entries below differ from those in the screen. Calls come from the whole dose curve; as a rule, active = well fitted inhibition curve with a large enough effect; inconclusive = small, poorly fitted or top-dose-only effect, or another doubt; inactive = no such curve, though single readings can be large or run the other way. Where the call is inconclusive, the potency comes from a doubtful curve fit.

The compounds below were run against DNA polymerase eta (Homo sapiens) (UniProt Q9Y253) (assay: qHTS for Inhibitors of Polymerase Eta). Conditions: recombinant Pol eta, fluorescent DNA replication assay; series mostly up to 114 µM; activity change, negative = inhibition: at the top concentration.
Text: The Y-family of DNA polymerases, such as Pol eta, are specifically involved in DNA repair. Pol eta copies undamaged DNA with a lower fidelity than other DNA-directed polymerases. However, it accurately replicates UV-damaged DNA; when thymine dimers are present, this polymerase inserts the complementary nucleotides in the newly synthesized DNA, thereby bypassing the lesion and suppressing the mutagenic effect of UV-induced DNA damage. […] Thus, while pol eta's (and most likely iota's) normal function is to protect humans against the deleterious consequences of DNA damage, under certain conditions they can have deleterious effects on human health. As a consequence, we propose to utilize a high throughput replication assay to identify small molecule inhibitors of pol eta. In a collaboration between the National Institute of Child Health & Human Development (NICHD) and NIH Chemical Genomics Center, a high-throughput, fluorescent screen was developed to screen the NIH Molecular Libraries Small Molecule Repository (MLSMR). This screen is used to identify inhibitors of pol eta. NIH Chemical Genomics Center [NCGC] NIH Molecular Libraries Probe Centers Network [MLPCN] MLPCN Grant: MH090825 Assay Submitter (PI): Roger Woodgate, NICHD)
Three microliters of reagents (buffer in column 3 and 4 as negative control and 10 nM Pol eta in columns 1, 2, and 5-48) were dispensed into a 1,536-well black solid-bottomed plate. Compounds (23 nL) were transferred via Kalypsys pin tool equipped with 1536-pin array. The plates were then incubated for 15 min at room temperature, and 1 µL substrate (50 nM final concentration) was added to start the reaction and kinetically read twice at 0 min and 10 min on the Viewlux reader
% is set by controls: 0 for no effect and ±100 for the full control effect; potency is the fitted concentration of half-maximal effect; tags give direction and shape of the fitted curve.

Chain of UniProt Q9Y253 (Q9Y253 whole entry, looked up): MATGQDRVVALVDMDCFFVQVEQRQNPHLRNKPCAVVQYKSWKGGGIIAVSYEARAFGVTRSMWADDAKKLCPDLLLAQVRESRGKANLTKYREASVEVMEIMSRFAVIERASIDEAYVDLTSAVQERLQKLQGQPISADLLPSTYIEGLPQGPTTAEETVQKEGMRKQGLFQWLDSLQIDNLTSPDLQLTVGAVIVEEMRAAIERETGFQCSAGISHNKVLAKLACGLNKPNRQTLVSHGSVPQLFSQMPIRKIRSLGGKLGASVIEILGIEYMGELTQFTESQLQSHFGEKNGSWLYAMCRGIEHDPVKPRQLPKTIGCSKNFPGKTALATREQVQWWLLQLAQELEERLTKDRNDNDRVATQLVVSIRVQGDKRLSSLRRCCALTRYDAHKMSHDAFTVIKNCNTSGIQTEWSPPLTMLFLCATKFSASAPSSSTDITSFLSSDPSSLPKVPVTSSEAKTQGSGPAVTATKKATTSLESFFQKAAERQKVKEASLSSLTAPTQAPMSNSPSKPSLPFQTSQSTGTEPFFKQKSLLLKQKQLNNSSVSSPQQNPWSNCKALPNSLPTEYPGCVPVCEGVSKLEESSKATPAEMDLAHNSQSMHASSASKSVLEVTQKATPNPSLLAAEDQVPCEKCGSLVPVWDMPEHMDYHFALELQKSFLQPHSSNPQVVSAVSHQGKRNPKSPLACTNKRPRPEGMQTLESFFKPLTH

How did the Potency turn out when `O=C1Nc2ccccc2SC(c2ccccc2)C1O` (centres undefined) was run?
The Potency was active: 2.82 µM.

How did the Potency turn out when `Cc1ccc(Oc2nc3ccccn3c(=O)c2/C=C(\C#N)C(=O)Nc2c(C)n(C)n(-c3ccccc3)c2=O)c(C)c1` was run?
Its Potency is inconclusive: 39.8 µM [inhibitor, partial curve, poor fit].

`O=C(NCc1ccccc1F)c1ccc(S(=O)(=O)Nc2cccc(C(F)(F)F)c2)cc1` was tested. Which Potency did it give?
Its Potency is inconclusive: 89.1 µM [inhibitor, partial curve, poor fit].

Which Potency does the source give for `Cc1c(Cl)cnn1CC(=O)NC1C(=O)N2C(C(=O)O)=C(CSc3nnnn3C)CSC12` (centres undefined) here?
Its Potency is active: 22.4 µM.

How did the Potency turn out when `Cc1ccc(-n2nc(C(=O)Nc3ccc(F)cc3Cl)c(=O)n(C)c2=O)cc1` was run?
Its Potency is inconclusive: 3.16 µM [inhibitor, partial curve, poor fit].

`CCN(CC)S(=O)(=O)c1ccc(NC(=O)c2cc3ccc4cccnc4c3[nH]2)cc1` was tested. Which Potency did it give?
The Potency was inconclusive: 79.4 µM [inhibitor, partial curve].

`O=C(O)c1ccccc1Nc1ccccc1C(=O)O` was tested. Which “activity change, negative = inhibition” value did it give?
The value was inactive: -17.2%.

`CCc1ccc(OCC(=O)NNC(=O)CSc2ncnc3sc(C)c(C)c23)cc1` was tested. Which Potency did it give?
Its Potency is inconclusive: 79.4 µM [inhibitor, partial curve].

With `O=C(Nc1ccc(Cl)cc1)Nc1ccccc1Sc1ncc([N+](=O)[O-])s1` as the compound, how does the Potency read?
The Potency was inconclusive: 22.4 µM [inhibitor, partial curve, poor fit].

Which “activity change, negative = inhibition” value does the source give for `CCN(CC)C(=O)c1sc2c(c1C)c(=O)n(-c1ccccc1)c(=O)n2Cc1c(C)cc(C)cc1C` here?
The value was inactive: -14.1%.

How did the Potency turn out when `O=C(NCc1ccco1)C1Cc2ccccc2CN1S(=O)(=O)c1ccccc1F` (centres undefined) was run?
The Potency was active: 10 µM.

For `CCc1ccc(NC(=O)CN(c2ccccc2)S(=O)(=O)N(C)C)cc1`, which Potency is on record?
The Potency was inconclusive: 39.8 µM [inhibitor, partial curve].

Which Potency does the source give for `Cc1ccc(N2CC(C(=O)Nc3nc4ccc(S(C)(=O)=O)cc4s3)CC2=O)cc1` (centres undefined) here?
The Potency was inconclusive: 100 µM [inhibitor, single point].

With `C=CC(=O)Nc1cccc(Oc2ccnc3[nH]ccc23)c1` as the compound, how does the Potency read?
Its Potency is inconclusive: 56.2 µM [inhibitor, partial curve, poor fit].

For `COc1ccccc1N1CCN(C(=S)Nc2ccc(F)cc2)CC1`, which Potency is on record?
The Potency was inconclusive: 2.82 µM [inhibitor, full curve, poor fit].

For `NC(=O)COC(=O)c1cc(=O)[nH]c2ccccc12`, which “activity change, negative = inhibition” value is on record?
The value was inactive: 24.5%.

With `COc1ccc(NC(=O)C2CC(c3c(F)cccc3Cl)=NO2)cc1OC` (centres undefined) as the compound, how does the Potency read?
The Potency was active: 89.1 µM.

Which “activity change, negative = inhibition” value does the source give for `COC(=O)c1cc(CSc2nc3ccccc3c(=O)n2C)oc1C` here?
Its value is inactive: -12.9%.

`COC(=O)c1cc(-c2ccc(C)o2)nc2ccccc12` was tested. Which Potency did it give?
Its Potency is inconclusive: 28.2 µM [inhibitor, partial curve, poor fit].
